Results taken from PubChem BioAssay AID1460 (National Center for Advancing Translational Sciences (NCATS), 2008).
In all, about 270,000 compounds went through this assay and about 5,800 (2.1%) were called active. Calls follow the shape of the dose curve; as a rule, active = well fitted inhibition curve with a large enough effect; inconclusive = small, poorly fitted or top-dose-only effect; inactive = flat fitted curve, though single readings scatter. Inconclusive results, whose numbers are uncertain, are shown. Potencies beside an inconclusive call are fits to weak or partial responses and may not hold up.

target: Microtubule-associated protein tau (Homo sapiens) (UniProt P10636); assay: qHTS for Inhibitors of Tau Fibril Formation, Thioflavin T Binding; settings: recombinant tau K18 P301L (four-repeat tau fragment), heparin-induced fibrillization, ThT fluorescence; series mostly up to 57.4 µM; also: nearly all actives have a fitted effect of over 55% in size
Sequence of UniProt P10636 (P10636 whole entry, looked up, the tested form may be a part): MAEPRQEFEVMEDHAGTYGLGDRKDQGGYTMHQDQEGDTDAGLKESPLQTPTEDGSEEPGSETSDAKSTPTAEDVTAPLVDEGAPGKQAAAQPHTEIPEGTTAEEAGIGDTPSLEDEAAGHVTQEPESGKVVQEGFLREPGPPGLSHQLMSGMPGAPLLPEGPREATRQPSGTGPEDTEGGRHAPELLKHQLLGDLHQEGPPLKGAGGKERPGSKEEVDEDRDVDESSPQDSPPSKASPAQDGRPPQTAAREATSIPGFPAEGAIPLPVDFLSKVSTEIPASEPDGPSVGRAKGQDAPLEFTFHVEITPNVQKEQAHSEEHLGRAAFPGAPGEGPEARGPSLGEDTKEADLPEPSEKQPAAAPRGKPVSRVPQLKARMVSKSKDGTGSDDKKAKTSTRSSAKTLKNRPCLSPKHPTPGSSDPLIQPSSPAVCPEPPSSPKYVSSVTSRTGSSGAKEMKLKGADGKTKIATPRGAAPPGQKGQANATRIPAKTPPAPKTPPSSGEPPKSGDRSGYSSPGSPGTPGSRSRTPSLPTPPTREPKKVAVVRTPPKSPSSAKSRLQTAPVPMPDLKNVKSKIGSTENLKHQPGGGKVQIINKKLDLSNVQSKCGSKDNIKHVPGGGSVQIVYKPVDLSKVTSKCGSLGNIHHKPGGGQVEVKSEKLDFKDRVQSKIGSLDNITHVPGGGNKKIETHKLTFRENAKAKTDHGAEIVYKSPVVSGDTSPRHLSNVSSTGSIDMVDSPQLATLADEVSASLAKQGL
Text: NIH Molecular Libraries Probe Production Network [MLPCN]
NIH Chemical Genomics Center [NCGC]
Assay Provider: Carlo Ballatore, University of Pennsylvania
The microtubule-associated protein tau is an abundant protein in the axons of neurons that stabilizes microtubules. With its ability to modulate microtubule dynamics, tau contributes directly or indirectly, to key structural and regulatory cellular functions. Particularly important is the influence tau exerts on axonal transport, which allows signaling molecules, trophic factors and other essential cellular constituents to travel along the axons. Under pathological conditions, tau becomes sequestered into insoluble aggregates called neurofibrillary tangles. This phenomenon is believed to have pathological consequences by promoting axonal transport deficits that ultimately lead to synaptic dysfunction and neuronal loss. To identify inhibitors of tau aggregation, a heparin-induced tau fibril formation assay was used that employed a recombinantly expressed fragment of tau, K18 (Q242-E372), bearing a P301L mutation (Gustke et al. 1994; Hong et al. 1998). This assay monitors tau fibrillization by Thioflavin T (ThT) fluorescence.
Gustke, N., B. Trinczek, et al. (1994). "Domains of tau protein and interactions with microtubules." Biochemistry 33(32): 9511-22.
Hong, M., V. Zhukareva, et al. (1998).
Li, W. and V. M. Lee (2006).
von Bergen, M., S. Barghorn, et al. (2001). "Mutations of tau protein in frontotemporal dementia promote aggregation of paired helical filaments by enhancing local beta-structure." J Biol Chem 276(51): 48165-74.
NCGC Assay Protocol Summary:
For screening, 2 uL/well human K18 P301L (15 uM unlabeled and 0.24 uM Alexa 594-labeled tau, final concentrations) in reagent buffer (100 mM sodium acetate pH 7) was dispensed into black solid 1536-well plates (Grenier) using a solenoid-based dispenser. […] After a 1 hr ambient incubation, the plates were read by an Envision (Perkin Elmer) to monitor ThT fluorescence (450/8 nm excitation and 510/23 nm emission). […]
Potency is read from the fitted curve at half-maximal effect; tags tell the direction and shape of the fitted curve.

| SMILES | Potency |
| --- | --- |
| Cc1cc(C)cc(-n2cccc2/C=C2/C(=N)N3C(=NC2=O)SN=C3S(C)(=O)=O)c1 | inconclusive: 22.4 µM [inhibitor, partial curve] |
| O=C(O)Cn1cc(/C=c2/sc3nc4ccccc4n3c2=O)c2ccccc21 | inconclusive: 6.31 µM [inhibitor, full curve] |
| COc1cc(NS(=O)(=O)c2ccc(NC(=S)NC(=O)c3sc4ccccc4c3Cl)cc2)nc(OC)n1 | inconclusive: 15.8 µM [inhibitor, partial curve] |
